{"source": "paper PMC6919601", "about": "“Identification of Plasmodium dipeptidyl aminopeptidase allosteric inhibitors by high throughput screening” (PLoS ONE, 2019)", "note": "Out of some 110,000 compounds screened, about 230 (0.21%) showed an effect of 50% or more. The list shows a part of the results.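 Also: 30 min substrate incubation versus DMSO and 10 µM JCP410 controls.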", "data": [{"target": "DPAP1 (Plasmodium falciparum, UniProt Q8IIJ9)", "sequence (Q8IIJ9 whole entry, looked up)": "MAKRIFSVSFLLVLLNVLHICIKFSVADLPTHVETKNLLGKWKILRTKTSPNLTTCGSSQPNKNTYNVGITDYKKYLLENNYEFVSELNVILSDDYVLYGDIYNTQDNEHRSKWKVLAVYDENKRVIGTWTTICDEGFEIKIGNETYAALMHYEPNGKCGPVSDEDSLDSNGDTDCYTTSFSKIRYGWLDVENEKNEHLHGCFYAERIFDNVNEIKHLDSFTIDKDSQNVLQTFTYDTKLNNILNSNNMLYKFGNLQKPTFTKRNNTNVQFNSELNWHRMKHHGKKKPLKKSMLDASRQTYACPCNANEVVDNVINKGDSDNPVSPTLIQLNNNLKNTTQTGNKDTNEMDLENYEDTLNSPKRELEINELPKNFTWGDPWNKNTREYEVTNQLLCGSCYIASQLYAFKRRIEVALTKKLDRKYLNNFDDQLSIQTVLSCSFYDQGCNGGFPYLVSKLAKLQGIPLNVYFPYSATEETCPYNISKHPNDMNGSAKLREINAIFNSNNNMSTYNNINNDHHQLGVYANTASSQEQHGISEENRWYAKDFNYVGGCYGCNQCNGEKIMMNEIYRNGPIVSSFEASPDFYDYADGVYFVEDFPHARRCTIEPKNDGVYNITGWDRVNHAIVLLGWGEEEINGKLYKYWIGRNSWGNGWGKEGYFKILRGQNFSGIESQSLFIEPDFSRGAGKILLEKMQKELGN", "assay": "primary screen, percent inhibition; read by cleavage of a fluorogenic dipeptide substrate; higher = more effect of the substance", "parameters": "species or system P. falciparum D10 trophozoite lysates; single well", "units": {"% Inhibition @ 10 uM": "%"}, "values": [{"smiles": "Cn1c(=O)c2c(nc(NCc3ccco3)n2Cc2cccc3ccccc23)n(C)c1=O", "% Inhibition @ 10 uM": -4.39}, {"smiles": "COc1ccc(OCCCn2ccnc2)cc1", "% Inhibition @ 10 uM": -3.94}, {"smiles": "COc1ccc(-c2noc(CCC(=O)NCc3ccc(F)cc3Cl)n2)cc1", "% Inhibition @ 10 uM": 60.3}, {"smiles": "O=C(NC1(C(F)(F)F)N=C2SCCN2C1=O)C1CCCCC1", "note": "(centres unmarked)", "% Inhibition @ 10 uM": 1.01}, {"smiles": "COCCNC(=O)C(c1ccccc1)N1Cc2ccccc2C1=O", "note": "(centres unmarked)", "% Inhibition @ 10 uM": 3.98}, {"smiles": "COc1ccc(OC)c(-c2csc(NC(=O)c3nn(C)c(C)c3Br)n2)c1", "% Inhibition @ 10 uM": 0.389}, {"smiles": "CN(C)c1nc(OCC(=O)Nc2ccc(Cl)cc2)nc(N(C)C)n1", "% Inhibition @ 10 uM": 0.992}, {"smiles": "CC(=O)N1CCC2(CC1)OC(=O)C(C)=C2C(=O)NCCCN1CCOCC1", "% Inhibition @ 10 uM": 2.11}, {"smiles": "CCCCN(C)c1nnnc2c1sc1nc(N3CCOCC3)c3c(c12)CC(C)(C)OC3", "% Inhibition @ 10 uM": -2.9}, {"smiles": "O=C1c2cccnc2C(=O)N1Cc1ccc(S(=O)(=O)NCc2ccccn2)s1", "% Inhibition @ 10 uM": -0.767}, {"smiles": "CCOc1cc(C2NC(=O)N(C)C(C)=C2C(=O)OCCc2ccccc2)cc(Br)c1O", "note": "(centres unmarked)", "% Inhibition @ 10 uM": 0.997}, {"smiles": "Cc1cccc(NC(=O)CCC(=O)O)c1C", "% Inhibition @ 10 uM": 2.4}, {"smiles": "COc1ccccc1C1C(C#N)=C(N)SC(N)=C1C#N", "% Inhibition @ 10 uM": 29.7}, {"smiles": "CCOc1ccc(CCNS(=O)(=O)c2c(C)nc3sccn3c2=O)cc1OCC", "% Inhibition @ 10 uM": 4.06}, {"smiles": "O=C(O)c1ccccc1Oc1nc(Oc2ccccc2C(=O)O)nc(N(c2ccccc2)c2ccccc2)n1", "% Inhibition @ 10 uM": -7.42}, {"smiles": "CN1CCN(C(=O)c2ccccc2[N+](=O)[O-])CC1", "% Inhibition @ 10 uM": -1.38}, {"smiles": "C/C(=C\\c1ccccc1)C(C)OC(=O)Nc1ccccc1", "note": "(centres unmarked)", "% Inhibition @ 10 uM": 1.35}, {"smiles": "O=C(NCc1ccccc1Cl)C1C2C=CC3(CN(Cc4cccs4)C(=O)C13)O2", "note": "(centres unmarked)", "% Inhibition @ 10 uM": 10.6}, {"smiles": "O=C(NC1(C(F)(F)F)Oc2ccc(Cl)cc2O1)N1CCC2(CC1)OCCO2", "note": "(centres unmarked)", "% Inhibition @ 10 uM": -1.2}, {"smiles": "CCOc1ccc(/C=C2\\N=C(C3CCCCC3)OC2=O)cc1", "% Inhibition @ 10 uM": 0.605}, {"smiles": "Cc1nn(CC(=O)NCCCN2CCc3ccccc3C2)c(=O)c2nn(-c3ccccc3)c(C)c12", "% Inhibition @ 10 uM": -2.49}, {"smiles": "O=C(CCn1c(=O)oc2ccccc21)Nc1ccccc1", "% Inhibition @ 10 uM": 1.4}, {"smiles": "O=C(/C=C/c1cccc([N+](=O)[O-])c1)Nc1ccccc1O", "% Inhibition @ 10 uM": 1.35}, {"smiles": "Cn1c(C(=O)N2CCC(C(=O)NCc3cccnc3)CC2)cc2sccc21", "% Inhibition @ 10 uM": 3.4}, {"smiles": "N#CC1=C(N)Oc2cc(O)ccc2C1c1cc(CN2CCOCC2)cs1", "note": "(centres unmarked)", "% Inhibition @ 10 uM": 8.11}, {"smiles": "CC[C@H](NC(=O)C1(NC(=O)c2ccc(-c3ccccc3Cl)c(Cl)c2)CCCCCC1)C(=O)c1nc2ncccc2o1", "% Inhibition @ 10 uM": 1.61}, {"smiles": "CC(=O)Nc1cccc(NC(=O)C23CC4CC(CC(C4)C2)C3)c1", "% Inhibition @ 10 uM": 0.962}, {"smiles": "CCC(C)c1ccc(NC(=O)c2ccc(C)cc2)cc1", "note": "(centres unmarked)", "% Inhibition @ 10 uM": -1.48}, {"smiles": "O=C(NCc1ccco1)c1ccc(CNc2c(N3CCCCC3)c(=O)c2=O)cc1", "% Inhibition @ 10 uM": 4.79}, {"smiles": "Cc1ccc(-c2ccccc2)n1-c1cccc2cccnc12", "% Inhibition @ 10 uM": 5.3}, {"smiles": "COc1cccc(CNc2cnn(C34CC5CC(CC(C5)C3C(=O)O)C4)c(=O)c2Cl)c1", "note": "(centres unmarked)", "% Inhibition @ 10 uM": 10.1}, {"smiles": "O=C(c1ccc([N+](=O)[O-])cc1Cl)N1CCN(c2ccc(Cl)cc2)CC1", "% Inhibition @ 10 uM": 2.16}, {"smiles": "CCOC(=O)C1=C(CNC(C)C)NC(=O)NC1c1ccccc1", "note": "(centres unmarked)", "% Inhibition @ 10 uM": 0.226}, {"smiles": "O=C1CSC(c2ccc([N+](=O)[O-])cc2)N1Cc1ccccc1", "note": "(centres unmarked)", "% Inhibition @ 10 uM": -2}, {"smiles": "CC(C)Cn1cc(NC(=O)Nc2ccc(Cl)cn2)c2ccccc2c1=O", "% Inhibition @ 10 uM": 0.358}, {"smiles": "C/C=C(\\C)CN(CCO)Cc1ccccc1", "% Inhibition @ 10 uM": -6.62}, {"smiles": "Cc1cccnc1Nc1nc(-c2ccc(O)cc2)cs1", "% Inhibition @ 10 uM": 4.96}, {"smiles": "CC(O)(CC(=O)O)C12CC3CC(CC(C3)C1)C2", "note": "(centres unmarked)", "% Inhibition @ 10 uM": -1.97}, {"smiles": "COc1ccc(C(=O)Nc2nc(C3COc4ccccc4O3)cs2)cc1OC", "note": "(centres unmarked)", "% Inhibition @ 10 uM": -1.71}, {"smiles": "COCCn1c(CCC(=O)O)ccc1-c1ccc(F)cc1", "% Inhibition @ 10 uM": 2.21}, {"smiles": "CC(C)(C)OC(=O)NC1CCN(S(=O)(=O)c2ccc3c(c2)OCCO3)CC1", "% Inhibition @ 10 uM": -3.24}, {"smiles": "Clc1ccc(N2N=C(c3cccs3)CC2c2cccs2)cc1", "note": "(centres unmarked)", "% Inhibition @ 10 uM": -6.27}, {"smiles": "C=CCc1ccc(OCc2ccc(C(=O)Nc3ccc4c(c3)OCCO4)o2)c(OC)c1", "% Inhibition @ 10 uM": 4.84}, {"smiles": "Cc1ccccc1OCC(O)Cn1cnc2ccccc21", "note": "(centres unmarked)", "% Inhibition @ 10 uM": -4.59}, {"smiles": "CCCSc1nc(O)c(C(c2ccccc2)c2ccccc2)c(O)n1", "% Inhibition @ 10 uM": 4.9}, {"smiles": "O=C(CN1C(=O)S/C(=C\\c2ccc(Cl)cc2)C1=O)Nc1cccnc1", "% Inhibition @ 10 uM": 2.92}, {"smiles": "CCCOc1ccc(CC(=O)Nc2ccc(Cl)cc2)cc1OC", "% Inhibition @ 10 uM": -3.87}, {"smiles": "Nc1nonc1-c1nc2ccccc2n1CC(=O)N1CCN(Cc2ccc3c(c2)OCO3)CC1", "% Inhibition @ 10 uM": -2.91}, {"smiles": "Cc1cccc(Cn2c(=O)n(C(C)C)c(=O)c3oc4ccccc4c32)c1", "% Inhibition @ 10 uM": -3.15}, {"smiles": "CC(C)CNC(=O)c1cc(S(=O)(=O)N2CCCC2)c(Cl)cc1Cl", "% Inhibition @ 10 uM": -1.1}]}]}
